Measurements taken from PubChem BioAssay AID488969 (Vanderbilt High Throughput Screening Facility, 2010).
The full ranking holds about 110,000 compounds; the median of “z-score” is about -0.1, and the highest 2% start at about 2. The list shows a part of the results. Activity calls are given as the source filed them.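 Rule for the calls: active = z-score in the third read window above 3 or below -3; inactive = the rest.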

The compounds below were run against Metabotropic glutamate receptor 8 (Rattus norvegicus) (UniProt P70579) (assay: mGluR8 Gi/Go-coupled signaling modulation – cell-based, rat, thallium flux, HTS, primary screen (AID 488969)). Settings: HEK293 rat mGluR8, GIRK (G protein-gated inwardly rectifying potassium channel) thallium flux, FluoZin2; at 10 µM; stronger effect = higher value; submaximal glutamate (EC20) added with thallium.
UniProt P70579, sequence (P70579 whole entry, looked up): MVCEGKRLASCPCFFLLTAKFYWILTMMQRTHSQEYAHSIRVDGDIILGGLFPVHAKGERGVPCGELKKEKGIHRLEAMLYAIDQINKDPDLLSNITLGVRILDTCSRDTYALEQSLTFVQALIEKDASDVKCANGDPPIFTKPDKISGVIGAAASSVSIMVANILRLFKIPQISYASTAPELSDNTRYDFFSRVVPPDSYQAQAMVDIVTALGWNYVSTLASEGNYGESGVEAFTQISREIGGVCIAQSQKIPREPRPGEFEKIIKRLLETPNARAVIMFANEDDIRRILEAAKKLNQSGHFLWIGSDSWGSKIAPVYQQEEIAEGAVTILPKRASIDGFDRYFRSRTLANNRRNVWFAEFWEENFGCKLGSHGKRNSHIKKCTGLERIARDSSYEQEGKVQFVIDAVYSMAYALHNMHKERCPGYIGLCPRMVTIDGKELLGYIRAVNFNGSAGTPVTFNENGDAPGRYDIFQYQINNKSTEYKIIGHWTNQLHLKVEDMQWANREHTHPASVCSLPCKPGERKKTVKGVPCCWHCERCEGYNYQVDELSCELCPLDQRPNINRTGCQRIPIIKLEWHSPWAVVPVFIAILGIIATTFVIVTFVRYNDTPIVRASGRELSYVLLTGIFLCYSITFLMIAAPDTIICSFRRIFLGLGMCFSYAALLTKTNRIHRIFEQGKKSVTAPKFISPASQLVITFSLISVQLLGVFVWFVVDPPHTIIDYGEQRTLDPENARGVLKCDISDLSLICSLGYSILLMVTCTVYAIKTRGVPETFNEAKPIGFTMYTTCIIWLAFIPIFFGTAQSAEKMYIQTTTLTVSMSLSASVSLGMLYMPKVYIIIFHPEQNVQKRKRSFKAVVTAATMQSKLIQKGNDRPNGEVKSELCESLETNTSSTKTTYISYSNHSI

Row | SMILES | z-score
1 | CCN(CC)CC(O)COc1ccc2c(c1)c(C(C)=O)c(C)n2-c1ccccc1 (centres undefined) | 2.25
2 | O=C(NCCSCc1ccccc1)c1ccc(C2SCC(=O)N2Cc2ccccc2)cc1 (centres undefined) | 0.575
3 | O=C(COC(=O)c1cc(S(=O)(=O)N2CCc3ccccc3C2)ccc1Cl)NCc1ccco1 | -0.0734
4 | COc1ccccc1Nc1nc(N)nc(-c2cc3ccccc3o2)n1 | -0.352
5 | CC1CCCC(C)N1C(=O)COc1ccc(-c2nnco2)cc1 (centres undefined) | -0.127
6 | Cc1ccc(S(=O)(=O)N/N=C/c2cnn(C)c2C)cc1 | -0.11
7 | O=C(/C=C/c1ccco1)NC(=S)Nc1ccc(Cl)cn1 | 1.63
8 | COc1cc(NS(=O)(=O)c2ccc(F)cc2)c(C(=O)O)cc1OC | -0.676
9 | CNC(=O)NC(=O)C(C)OC(=O)c1c(C)noc1C (centres undefined) | 0.197
10 | N=c1c2c(-c3ccccc3)c(-c3ccccc3)n(Cc3ccccc3)c2ncn1CCO | 0.392
11 | Cc1ccc(Nc2cnn(C34CC5CC(CC(CC(=O)O)(C5)C3)C4)c(=O)c2Cl)cc1 | -0.186
12 | O=S(=O)(c1ccc(NC2CCCCC2)cc1)N1CCOCC1 | -0.38
13 | CCOC(=O)c1c(-c2cccs2)csc1NC(=O)COC(=O)c1c(C)noc1C | -0.376
14 | CCc1cccc2c(C(=O)COC(=O)c3ccccc3)c[nH]c12 | 0.151
15 | COc1ccc(S(=O)(=O)N2CCN(CC(=O)Nc3cc(OC)cc(OC)c3)CC2)cc1 | 0.00976
16 | COc1ccccc1OCc1ccc(C(=O)OCC2CCCO2)o1 (centres undefined) | -0.00893
17 | CCOC(=O)N1CCN(C(=O)CN(C2CCCCC2)S(=O)(=O)c2c(C)cc(C)cc2C)CC1 | -0.0705
18 | CC(=O)N1C(=O)C(=C2C=C(C)OC(C)=C2)c2ccccc21 | 0.42
19 | CC(Sc1nc2cc([N+](=O)[O-])ccc2n1-c1ccc(F)cc1)C(=O)NCc1ccc2c(c1)OCO2 (centres undefined) | -0.0673
20 | CCc1nc(Cl)c(C#N)c2c1CCCC2 | -0.311
21 | COc1ccc(-c2csc3nc(-c4ccc(C)cc4)oc(=O)c23)cc1OC | 0.338
22 | Cc1ccc(S(=O)(=O)Nc2cc3c(C(=O)Nc4ccccc4)c(C)oc3c3ccccc23)cc1 | 0.414
23 | Cc1cccc(NC(=O)Cn2cnc3sc(C)c(S(=O)(=O)N4CCC(C)CC4)c3c2=O)n1 | -1.5
24 | O=C(O)Cn1c(SCCOc2ccccc2)nc2ccccc21 | -0.0566
25 | CCN1CCN(C(=O)CSCc2nc(-c3ccc(OC)c(OC)c3)oc2C)CC1 | 0.209
26 | OC(COCC1COc2ccccc2O1)CN1CCN(c2ccccc2F)CC1 (centres undefined) | -0.377
27 | Cc1ccc(-c2nnn(CC(=O)N(c3ccccc3)C(C(=O)NC(C)(C)C)c3cccs3)n2)o1 (centres undefined) | -0.243

Row | SMILES | z-score
28 | CCOC(=O)C1CCN(C(=O)c2cccc(NC(=O)C(CC)CC)c2)CC1 | 0.433
29 | CC(C(=O)N1CCN(c2ccccc2)CC1)N1C(=O)C2CC=CCC2C1=O (centres undefined) | 0.028
30 | O=C1CC(c2ccco2)Sc2nc3ccccc3n21 (centres undefined) | active: 3.22
31 | C/C(=N\NC(=O)CSc1nnc(C)s1)c1ccc(Cl)cc1 | -0.156
32 | O=C1C2CCCCN2C(=O)N1CCN1CCN(c2ccc([N+](=O)[O-])cc2)CC1 (centres undefined) | -0.2
33 | Cc1ccc(NC(=O)CSc2nc(N)c3cc4c(nc3n2)CCCC4)cc1 | -1.03
34 | CNC(=O)CN1C(=O)NC2(CCc3ccccc32)C1=O (centres undefined) | 0.183
35 | Cc1c(C(=O)O)cccc1-c1ccc(/C=N/Nc2ccc(Br)cc2)o1 | -0.485
36 | CCOC(=O)Cn1c(-c2cccnc2Cl)nc2cc(C)c(C)cc21 | 0.0323
37 | O=C(NCc1ccco1)c1ccc(COc2cccc3ccccc23)cc1 | -0.2
38 | c1ccc(-c2nc3ccccc3c3nncn23)cc1 | 0.321
39 | Cn1c(SCC(=O)N/N=C/C=C\c2ccco2)nc2ccccc21 | 0.668
40 | O=C(NCc1ccccc1)c1cccc(OCC(=O)N2CCN(C(=O)c3ccco3)CC2)c1 | -0.018
41 | C=CCn1c(=O)c2c(nc3n2CC(C)CN3c2cccc(OC)c2)n(C)c1=O (centres undefined) | -0.52
42 | CCn1c(SCC(=O)Nc2nc(C)cs2)nnc1-c1ccoc1C | -0.0665
43 | c1ccc(-n2c(-c3cccs3)nc3nc4ccccc4nc32)cc1 | -0.294
44 | COC(=O)c1cc(C(=O)Nc2nnc(CC(C)C)s2)cc([N+](=O)[O-])c1 | -0.666
45 | Cc1ccc(NC(=O)c2cc(-c3ccccc3)nn2-c2ccccc2)c(Br)c1 | 0.496
46 | CCCN1CCC(=NNc2ccc(S(=O)(=O)N3CCOCC3)cc2[N+](=O)[O-])CC1 | 0.0209
47 | CC1(C)Cc2ccccc2C(N/N=C/c2cccc(F)c2)=N1 | 0.289
48 | O=[N+]([O-])c1ccc(N2CCCCC2)cc1NCCOc1ccccc1 | 0.0562
49 | O=C(CC(NCCc1ccccc1)C(=O)O)Nc1ccc(O)cc1 (centres undefined) | 0.33
50 | COCCNC(=S)N/N=C/c1ccc(N2CCOCC2)cc1 | -0.189
51 | CC1(C)CC(=O)c2sc(NC(=O)CCS(=O)(=O)c3ccccc3)nc2C1 | -0.0018
52 | CC(=O)Nc1ccc(S(=O)(=O)NCC(=O)OCc2cc(=O)oc3ccc4ccccc4c23)cc1 | -0.088
53 | Cc1nc2ccccn2c1/C(O)=C1\C(=O)C(=O)N(CCCN(C)C)C1c1ccc(F)cc1 (centres undefined) | -0.187
54 | Cc1cn2c(-c3ccncc3)nnc2s1 | -0.271
